Experimental data published in PubChem BioAssay AID2147 (National Center for Advancing Translational Sciences (NCATS), 2009).
Where “and” joins values, the source holds several entries; their conditions need not be identical. Equal entries are not always repeated. Screen size: about 230,000 compounds; about 3,600 (1.6%) were called active. The inconclusive results got no clear call from the source; some entries with a clear call stand among them for comparison. The call rests on the fitted dose curve; in most records, active means well fitted inhibition curve with a large enough effect (not every such curve was filed as active); inconclusive means small, poorly fitted or top-dose-only effect, or another doubt; inactive means no such curve, though single readings can be large or run the other way. A potency beside an inconclusive call is a rough fit, not a confirmed value. The source holds several records for some structures; these can differ, active in one and inactive in another.

molecular target: Lysine-specific demethylase 4E (Homo sapiens) (UniProt B2RXH2); experiment: qHTS Assay for Inhibitors of Human Jumonji Domain Containing 2E (JMJD2E); settings: JMJD2E catalytic domain, FDH-coupled NADH fluorescence (FDH is formaldehyde dehydrogenase); series mostly up to 57.1 µM; activity change, negative = inhibition: at the top concentration
Further: nearly all actives have a fitted effect of over 50% in size.
Potency means the concentration at half of the fitted maximal effect; tags describe the fitted curve by direction and shape.
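Wherever activity change, negative = inhibition is given: 0% = wells with enzyme and -100% = buffer wells without enzyme.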

UniProt B2RXH2, sequence (B2RXH2 whole entry, looked up, the tested form may be a part): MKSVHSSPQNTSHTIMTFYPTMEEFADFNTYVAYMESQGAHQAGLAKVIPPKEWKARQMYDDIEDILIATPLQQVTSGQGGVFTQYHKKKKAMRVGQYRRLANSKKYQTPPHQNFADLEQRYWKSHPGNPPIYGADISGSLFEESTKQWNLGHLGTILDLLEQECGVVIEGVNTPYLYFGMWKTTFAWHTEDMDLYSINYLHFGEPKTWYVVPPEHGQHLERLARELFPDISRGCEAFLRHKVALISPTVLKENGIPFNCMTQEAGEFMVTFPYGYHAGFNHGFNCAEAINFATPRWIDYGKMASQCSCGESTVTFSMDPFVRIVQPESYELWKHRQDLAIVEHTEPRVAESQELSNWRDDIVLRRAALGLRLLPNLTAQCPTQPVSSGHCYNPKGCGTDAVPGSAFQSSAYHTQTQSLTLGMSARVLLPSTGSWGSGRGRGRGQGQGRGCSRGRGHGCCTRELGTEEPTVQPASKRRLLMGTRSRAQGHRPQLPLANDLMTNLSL

SMILES	Potency	activity change, negative = inhibition
Nc1c(C(=O)OCC(=O)NCc2ccccc2)[nH]c(=O)[nH]c1=O	inconclusive: 22.4 µM [inhibitor, partial curve]	
CCCc1nc2oc3c(NCCOCCO)ncnc3c2c2c1COC(C)(C)C2	inconclusive: 3.16 µM [inhibitor, full curve]	
COc1cccc(C2=CC(c3ccc(N(C)C)cc3)n3nnnc3N2)c1 (stereo not drawn)	inconclusive: 39.8 µM [inhibitor, single point]	
CS(=O)(=O)c1sc(C(=O)NC(=S)Nc2ccc(OC(F)(F)F)cc2)c2c1C=CCC2		inactive: -6.61%
Cc1nn(-c2ccccc2)c(N2CCCC2)c1/C=N/NC(=S)Nc1cc(C(F)(F)F)ccc1Cl	inconclusive: 25.1 µM [inhibitor, partial curve]	
O=C(CNC(=O)c1ccc(F)cc1)Nc1ccccc1C(F)(F)F		inactive: 6.43%
COc1ccc(CNC(=O)c2ccccc2NS(C)(=O)=O)cc1	inconclusive: 31.6 µM [inhibitor, partial curve]	
COc1ccc2nc(C)c(C(=O)OCCN(C)C)cc2c1	inconclusive: 28.2 µM [inhibitor, partial curve]	
COc1ccc(N=Cc2c(O)n(-c3cccc(C)n3)c(=O)c3ccccc23)cc1	inconclusive: 39.8 µM [inhibitor, single point]	
Cc1cc(C)n(-c2nc(SCC(=O)O)c3c4c(sc3n2)CCCC4)n1	inconclusive: 1.41 µM [inhibitor, full curve, poor fit]	
O=C(CCc1ccc(O)cc1)c1c(O)cc(O)cc1O	inactive and active: 31.6 µM	
Cc1nc(SCC(=O)c2cccs2)c2oc3ccccc3c2n1		inactive: -16.2%
Fc1ccc(F)c(C2=NNC(=NCC3CCCO3)SC2)c1 (stereo not drawn)	inconclusive: 25.1 µM [inhibitor, partial curve]	
O=C(NC1CC2CCCC(C1)N2Cc1cccs1)c1ccc([N+](=O)[O-])cc1 (stereo not drawn)		inactive: 16.5%
CC(C)N1CCC(N2CCN(C3CCCC3)CC2CCO)CC1 (stereo not drawn)		inactive: 17.3%
CC(C)c1[nH]c(=O)c(C#N)c2c1CSC(C)(C)C2	inconclusive: 39.8 µM [inhibitor, single point]	
OCCN(CCO)CC(O)Cn1c2ccccc2c2ccccc21 (stereo not drawn)	inconclusive: 39.8 µM [inhibitor, single point]	
Cc1cccc(CNc2cc(-c3ccc(N(C)C)cc3)ncn2)c1	inconclusive: 35.5 µM [inhibitor, partial curve]	
COC(=O)c1ccc(OCCOCCOc2cccc3ccc(C)nc23)cc1	inconclusive: 11.2 µM [inhibitor, partial curve]	
Fc1ccc(/C=N/Nc2nc(-c3cccnc3)nc3ccccc23)cc1	inconclusive: 39.8 µM [inhibitor, single point]	
Cc1oc(-c2ccc(Cl)cc2)nc1CSCC(=O)NCCCN1CCOCC1	inconclusive: 31.6 µM [inhibitor, single point]	
Cc1ccc(N2C(=O)CC(Sc3ccccc3C(=O)O)C2=O)cc1 (stereo not drawn)		inactive: 6.1%
Cc1ccc(S(=O)(=O)Nc2c(C)nn(C)c2C)cc1		inactive: 5.24%
COC(=O)c1ccc(NC(=O)CN2CCCC2)cc1		inactive: 1.62%
Cc1ccc(NC(=S)N2CCCC(c3nc4ccccc4[nH]3)C2)cc1 (stereo not drawn)		inactive: 126%

SMILES	Potency	activity change, negative = inhibition
Cc1ccc2cc(C(c3nnnn3C3CCCC3)N3CCN(c4ccccc4)CC3)c(=O)[nH]c2c1 (stereo not drawn)	inconclusive: 22.4 µM [inhibitor, single point]	
O=C(c1nc2nc(-c3ccccc3)cc(C(F)(F)F)n2n1)N1CCOCC1	inconclusive: 28.2 µM [inhibitor, partial curve]	
Cc1c(=O)n(OCc2ccc(Cl)cc2)c2ccccc2[n+]1[O-]	inconclusive: 25.1 µM [inhibitor, single point]	
CCN(CC)S(=O)(=O)c1ccc(N2CCOCC2)c(NC(=O)c2cc(-c3ccccn3)nc3ccccc23)c1	active: 12.6 µM	
CC(=O)N/C(N)=N/c1nc(=O)c2ccccc2s1	inconclusive: 31.6 µM [inhibitor, partial curve]	
COc1ccc(OC)c(-c2cc(C(=O)N3CCN(c4ccccc4)CC3)no2)c1	inconclusive: 39.8 µM [inhibitor, single point]	
CCN(c1ccccc1)S(=O)(=O)c1ccc(Cl)c(NC(=O)COC(=O)c2cc(O)c3ccccc3c2O)c1	active: 8.91 µM	
Clc1ccc(OCc2nn3c(-c4ccco4)nnc3s2)cc1		inactive: -3.44%
Nn1c(COc2ccccc2)nc2ccccc2c1=O		inactive: -5.51%
CN(C)Cc1cc2ccccc2c2c1COC2	inconclusive: 31.6 µM [inhibitor, single point]	
Cc1ccc(-n2c3c(cc(C(=O)NCc4ccco4)c2=O)C(=O)CC(C)(C)C3)cc1	inconclusive: 28.2 µM [inhibitor, partial curve]	
CCOC(=O)c1cnc2sccn2c1=O	inconclusive: 35.5 µM [inhibitor, partial curve]	
Cc1ccc(S(=O)(=O)Nc2nc(C)c(C(=O)N/N=C/c3ccccc3)s2)cc1	inconclusive: 39.8 µM [inhibitor, single point]	
Cc1ccc(-c2nn(-c3ccccc3)cc2C2SCC(=O)N2Cc2ccccc2)o1 (stereo not drawn)	inconclusive: 25.1 µM [inhibitor, single point]	
C=CCNC(=O)/C(C#N)=C/c1ccc(SC)cc1	inconclusive: 28.2 µM [inhibitor, single point]	
Cc1[nH]n(-c2ccccc2)c(=O)c1C=Nc1cnc2ccccc2c1	inconclusive: 3.55 µM [inhibitor, partial curve]	
Cc1[nH]c2ccccc2c1CCN(Cc1cccnc1)C(=S)Nc1ccc(F)cc1		inactive: 9.83%
O=C(Nc1ccc2c(c1)OCO2)C(c1ccc(Cl)cc1)N1CCN(C(=O)c2ccco2)CC1 (stereo not drawn)		inactive: 5.61%
O=C1C2C3C=CC(C3)C2C(=O)N1CN(Cc1ccccc1)CN1C(=O)C2C3C=CC(C3)C2C1=O (stereo not drawn)		inactive: 150%
COc1cccc(CC2(CO)CCCN(Cc3sc(N4CCCC4)nc3Cl)C2)c1 (stereo not drawn)		inactive: -6.41%
N#Cc1ccc(-c2csc(NC(=O)c3cc(-c4cccs4)nc4ccccc34)n2)cc1	inconclusive: 28.2 µM [inhibitor, partial curve]	
O=S1(=O)C[C@@H](O)[C@@H](Nc2ccc(Cl)cc2)C1		inactive: -3.36%
CC(C)(C)c1ccc(Oc2ccc(N)cn2)cc1	inconclusive: 35.5 µM [inhibitor, single point]	
O=S(=O)(c1ccc(-c2csc(Nc3ccc(F)cc3)n2)cc1)N1CCCC1	inconclusive: 20 µM [inhibitor, partial curve]	
CCOc1cc(/C=C2/C(=O)ON=C2C)ccc1OCc1ccccc1	inconclusive: 8.91 µM [inhibitor, single point]	

SMILES	Potency	activity change, negative = inhibition
COc1ccc(CN2CCN(C(=O)c3cc(OC)c(OC)c(OC)c3)CC2)cc1OC	inconclusive: 25.1 µM [inhibitor, single point]	
CC(C)CC(C(=O)NC1CCCC1)N(Cc1ccc2c(c1)OCO2)C(=O)c1snc(C(N)=O)c1N (stereo not drawn)	inconclusive: 28.2 µM [inhibitor, single point]	
COC(=O)c1cc(OC)c(OC)cc1NC(=O)c1ccc(C)cc1	inconclusive: 39.8 µM [inhibitor, single point]	
COc1ccc(N2CCN(c3cc(C)c4ccc(O)cc4n3)CC2)cc1	inconclusive: 39.8 µM [inhibitor, single point]	
CCn1c(C)nc2cc(S(N)(=O)=O)ccc21		inactive: 3.82%
O=C(COc1cccnc1[N+](=O)[O-])N1CCN(S(=O)(=O)c2ccc3ccccc3c2)CC1	inconclusive: 25.1 µM [inhibitor, single point]	
COc1ccc(Cn2c(O)c(C=Nc3ccc(O)cc3)c3ccccc3c2=O)cc1		inactive: -10.7%
COC(=O)CNS(=O)(=O)c1ccc(Cc2ccc(S(=O)(=O)NCC(=O)OC)cc2)cc1	inconclusive: 39.8 µM [inhibitor, single point]	
COCCn1nc2cc(C(=O)NCc3cc(C(F)(F)F)cc(C(F)(F)F)c3)ccc2c1OC		inactive: -1.81%
Cc1ccc(NC(=O)CN(C)C(=O)CCOc2ccccc2C)cc1	inconclusive: 31.6 µM [inhibitor, single point]	
O=C(O)Cc1coc2ccc3ccccc3c12	inconclusive: 39.8 µM [inhibitor, single point]	
N#Cc1cc(-c2ccccc2)nn1-c1ccccc1	inconclusive: 39.8 µM [inhibitor, single point]	
Cc1ccccc1C(=O)NC(=S)NCCc1ccccc1		inactive: -1.22%
CCOc1ccc(-c2nc3scc(-c4cccs4)c3c(=O)[nH]2)cc1	inconclusive: 7.08 µM [inhibitor, partial curve]	
O=C(C/C=N/OCc1ccccc1F)c1cnc(-c2ccc(Cl)cc2)s1		inactive: -21.8%
CCOC(=O)c1cn2ccc(C)cc2n1	inconclusive: 22.4 µM [inhibitor, partial curve]	
CN(C)NC(=S)Nc1cccc(C(F)(F)F)c1		inactive: 14%
CC(=O)Nc1ccc(NC(=O)C(Sc2ccccc2)c2ccccc2)cc1 (stereo not drawn)		inactive: -4.09%
CN(C)S(=O)(=O)c1ccc(N2CCCC2)c(C(=O)Nc2nc(-c3cc(F)ccc3F)cs2)c1	inconclusive: 17.8 µM [inhibitor, single point]	
O=C(c1cccs1)n1nc(-c2ccccc2)nc1NCc1ccc(F)cc1	inconclusive: 35.5 µM [inhibitor, single point]	
CC(=O)N1CCc2ccc(S(=O)(=O)Nc3ccccc3Cl)cc21		inactive: 2.63%
Cc1cc(NC(=O)c2cc(C)on2)no1		inactive: 0.0886%
CN1CCN(CCCN2c3ccccc3Sc3ccc(C(F)(F)F)cc32)CC1	inconclusive: 25.1 µM [inhibitor, partial curve]	
